Measurements: the supplement of paper PMC12217912
The list shows a part of the results. Sequences were assembled here from the parent chain. Values near 0.05 are background.

B1: TEV protease; numbered along this chain (parent)
chain: MGESLFKGPRDYNPISSSICHLTNESDGHTTSLYGIGFGPFIITNKHLFRRNNGTLVVQSLHGVFKVKDTTTLQQHLVDGRDMIIIRMPKDFPPFPQKLKFREPQREERICLVTTNFQTKSMSSMVSDTSCTFPSGDGIFWKHWIQTKDGQCGSPLVSTRDGFIVGIHSASNFTNTNNYFTSVPKNFMELLTNQEAQQWVSGWRLNADSVLWGGHKVFMVKPEEPFQPVKEATQL

Variants of: B1
Test: raw area under fraction-flipped curve 0-4 h after induction (AUC4h, not background-subtracted), DNA-recorder readout of cleavage of the substrate (dimensionless); higher = more cleavage of the substrate by the protease variant
Details: temperature: 34 °C; time window: 0-4 h after rhamnose induction
Description: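 In vivo DNA recorder in E. coli TOP10(DE3) ΔrhaA at 34 °C. Each TEVp single-site mutant (parent TEVp 0) is paired with a single-site variant of the 7-mer TEVs (canonical ENLYFQ|S). The substrate sits between flexible linkers in a Bxb1-sfGFP-TEVs-SsrA fusion, so cleavage stabilises Bxb1 and speeds flipping of a recombination array, read by NGS. The value is the raw area under the fraction-flipped curve over 0-4 h after rhamnose induction (AUC4h), with ≥20 reads per time point. It is not background-subtracted; inactive controls average about 0.047.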
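Note: Bxb1 expression induced with 0.2% (w/v) L-rhamnose at OD600 near 0.5, cultures sampled hourly, flipped fraction per protease–substrate barcode pair counted by paired-end Illumina sequencing.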

| Variant | area with substrate ENAYFQS | area with substrate ENCYFQS | area with substrate ENDYFQS | area with substrate ENEYFQS | area with substrate ENFYFQS | area with substrate ENGYFQS | area with substrate ENIYFQS | area with substrate ENKYFQS | area with substrate ENMYFQS | area with substrate ENNYFQS | area with substrate ENPYFQS | area with substrate ENRYFQS | area with substrate ENSYFQS | area with substrate ENTYFQS | area with substrate ENVYFQS | area with substrate ENWYFQS | area with substrate ENHYFQS | area with substrate ENQYFQS | area with substrate ENYYFQS |
| --- | --- | --- | --- | --- | --- | --- | --- | --- | --- | --- | --- | --- | --- | --- | --- | --- | --- | --- | --- |
| K46C | 0.0568 | 0.0627 | 0.0162 | 0.0627 | 0.0456 | 0.06 | 0.121 | 0.0689 | 0.0639 | 0.0692 | 0.0528 | 0.032 | 0.0337 | 0.0516 | 0.0639 | 0.0601 |  |  |  |
| K46M | 0.0581 | 0.0632 | 0.0543 | 0.0524 |  |  | 0.0733 | 0.0682 |  |  | 0.0551 | 0.0577 | 0.0524 | 0.054 | 0.0549 |  | 0.063 | 0.0549 | 0.0739 |
| T30Y | 0.061 | 0.0652 | 0.0598 | 0.066 | 0.0647 | 0.0705 |  | 0.0611 | 0.108 | 0.0568 |  | 0.0523 |  | 0.0701 | 0.0769 | 0.073 | 0.0578 | 0.0707 | 0.0559 |
| T30L | 0.0653 |  | 0.0729 | 0.0639 |  | 0.0544 |  | 0.0575 | 0.112 | 0.0628 |  | 0.0479 | 0.0605 | 0.0652 | 0.0877 | 0.0099 |  | 0.0583 |  |
| L33M | 0.0618 |  | 0.0719 | 0.0646 | 0.0613 | 0.0644 |  | 0.0549 | 0.0551 | 0.0527 | 0.0509 |  | 0.0607 | 0.087 | 0.0633 | 0.0602 |  | 0.0504 | 0.0724 |
| L33I | 0.0622 |  | 0.06 | 0.0636 | 0.0553 | 0.0583 |  | 0.0592 | 0.0593 | 0.0643 | 0.0626 | 0.0495 |  | 0.0689 | 0.0676 |  |  | 0.0517 |  |
| I43Q | 0.0468 | 0.0461 | 0.043 | 0.052 | 0.039 | 0.0478 | 0.049 | 0.0453 | 0.0414 | 0.0471 | 0.0471 | 0.0442 | 0.038 | 0.0524 | 0.0539 |  | 0.0647 | 0.051 | 0.0361 |
| I43L | 0.0619 | 0.0708 | 0.0563 |  | 0.0586 | 0.0624 | 0.104 | 0.0619 |  | 0.0651 | 0.041 | 0.0507 | 0.0728 |  | 0.0692 | 0.053 | 0.0563 | 0.0609 | 0.0573 |
| I43A | 0.0547 | 0.0785 | 0.0618 | 0.0661 | 0.0569 | 0.0555 |  | 0.0596 | 0.06 | 0.0623 | 0.036 | 0.0486 | 0.0642 | 0.0493 | 0.0691 | 0.0535 | 0.0919 | 0.0634 | 0.0644 |
| I43E | 0.0428 | 0.0403 | 0.0553 | 0.043 | 0.0474 |  |  | 0.0394 |  | 0.0473 | 0.06 | 0.0481 | 0.0466 | 0.0256 | 0.0476 |  | 0.0372 | 0.0521 |  |
| I43N | 0.0324 | 0.0488 | 0.0455 | 0.0471 | 0.0466 | 0.0494 | 0.0419 | 0.0293 | 0.0562 | 0.0454 |  | 0.0428 | 0.0549 | 0.0481 | 0.0502 |  | 0.0434 | 0.0478 | 0.0498 |
| I43S | 0.0571 | 0.0506 | 0.0465 | 0.0416 | 0.0499 | 0.0415 | 0.0543 | 0.0492 | 0.0139 | 0.0475 | 0.0451 | 0.0543 | 0.0554 | 0.0598 | 0.053 | 0.0461 | 0.0363 | 0.057 | 0.0426 |
| G28I | 0.0453 | 0.0574 | 0.0516 | 0.064 |  | 0.0528 |  | 0.0563 | 0.0679 |  |  | 0.0554 | 0.0528 | 0.0633 | 0.0659 | 0.011 | 0.0561 | 0.0525 | 0.0616 |
| G28D | 0.0544 | 0.0797 | 0.0574 | 0.0643 | 0.0594 | 0.0573 | 0.0933 | 0.0668 | 0.062 | 0.0578 | 0.0586 | 0.0536 | 0.0757 | 0.0663 | 0.0651 |  |  | 0.0651 | 0.0613 |
| T44S | 0.053 | 0.0754 | 0.0583 | 0.0535 | 0.052 | 0.0558 | 0.102 | 0.0604 | 0.0648 |  | 0.055 | 0.0573 | 0.0615 | 0.0594 | 0.0954 |  | 0.0734 | 0.0471 |  |
| T44P | 0.0526 | 0.0452 | 0.0447 | 0.044 |  |  | 0.046 |  | 0.0453 | 0.0496 |  | 0.0655 | 0.0436 | 0.0319 | 0.0387 |  | 0.0402 | 0.026 | 0.0319 |
| H47C | 0.0533 | 0.0599 | 0.0649 | 0.0701 | 0.0714 | 0.061 |  | 0.0542 | 0.0689 |  | 0.0518 |  | 0.0651 |  |  | 0.0551 | 0.0663 | 0.0525 |  |
| H47E | 0.0533 | 0.0625 | 0.0569 | 0.0509 | 0.0604 | 0.0696 | 0.0637 |  | 0.0585 | 0.0622 | 0.0739 | 0.0615 | 0.0582 | 0.0617 | 0.0736 | 0.0403 |  | 0.0607 | 0.0628 |
| F49A | 0.0718 |  | 0.062 | 0.041 | 0.0683 | 0.0723 | 0.0624 |  | 0.0575 | 0.0562 |  |  | 0.0576 | 0.0554 | 0.0634 | 0.0252 | 0.0514 | 0.045 | 0.0556 |
| F49I | 0.0698 | 0.0621 | 0.0582 | 0.0613 | 0.0206 |  | 0.0662 | 0.0672 | 0.0667 | 0.0644 | 0.0341 | 0.0582 | 0.0635 | 0.0578 | 0.051 |  | 0.0571 | 0.0622 |  |
| G37T | 0.057 | 0.0651 | 0.0381 | 0.0577 |  | 0.0659 | 0.102 |  | 0.0619 | 0.0607 |  | 0.0565 |  | 0.0584 | 0.0466 | 0.0449 | 0.0535 | 0.0501 | 0.0588 |
| G37W | 0.0802 | 0.0607 | 0.0529 | 0.0589 | 0.0562 | 0.0936 | 0.0847 | 0.0506 | 0.0688 | 0.0616 | 0.0511 |  | 0.0494 | 0.0517 | 0.0581 |  |  | 0.0532 |  |
| G37I | 0.0755 | 0.0569 | 0.0551 | 0.053 | 0.0507 | 0.0571 | 0.0997 |  | 0.0663 | 0.0538 | 0.0564 | 0.0566 | 0.0504 | 0.073 |  |  | 0.0559 | 0.0647 |  |
